In all, about 110,000 compounds were measured (“z-score”: median about -0.1, highest 2% from about 2 on). The list shows a part of the results. Active and inactive are the calls of the source.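 How the source made its calls: active means z-score in the third read window above 3 or below -3; inactive means the rest.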

The target of this test is Metabotropic glutamate receptor 8 (Rattus norvegicus) (UniProt P70579). The test is described as follows: rat mGluR8 modulators via GIRK flux, primary screen, cell-based, thallium flux, HTS (AID 488969). Particulars: HEK293 rat mGluR8, GIRK (G protein-gated inwardly rectifying potassium channel) thallium flux, FluoZin2; at 10 µM; stronger effect = higher value; submaximal glutamate (EC20) added with thallium.
Sequence of UniProt P70579 (P70579 whole entry, looked up): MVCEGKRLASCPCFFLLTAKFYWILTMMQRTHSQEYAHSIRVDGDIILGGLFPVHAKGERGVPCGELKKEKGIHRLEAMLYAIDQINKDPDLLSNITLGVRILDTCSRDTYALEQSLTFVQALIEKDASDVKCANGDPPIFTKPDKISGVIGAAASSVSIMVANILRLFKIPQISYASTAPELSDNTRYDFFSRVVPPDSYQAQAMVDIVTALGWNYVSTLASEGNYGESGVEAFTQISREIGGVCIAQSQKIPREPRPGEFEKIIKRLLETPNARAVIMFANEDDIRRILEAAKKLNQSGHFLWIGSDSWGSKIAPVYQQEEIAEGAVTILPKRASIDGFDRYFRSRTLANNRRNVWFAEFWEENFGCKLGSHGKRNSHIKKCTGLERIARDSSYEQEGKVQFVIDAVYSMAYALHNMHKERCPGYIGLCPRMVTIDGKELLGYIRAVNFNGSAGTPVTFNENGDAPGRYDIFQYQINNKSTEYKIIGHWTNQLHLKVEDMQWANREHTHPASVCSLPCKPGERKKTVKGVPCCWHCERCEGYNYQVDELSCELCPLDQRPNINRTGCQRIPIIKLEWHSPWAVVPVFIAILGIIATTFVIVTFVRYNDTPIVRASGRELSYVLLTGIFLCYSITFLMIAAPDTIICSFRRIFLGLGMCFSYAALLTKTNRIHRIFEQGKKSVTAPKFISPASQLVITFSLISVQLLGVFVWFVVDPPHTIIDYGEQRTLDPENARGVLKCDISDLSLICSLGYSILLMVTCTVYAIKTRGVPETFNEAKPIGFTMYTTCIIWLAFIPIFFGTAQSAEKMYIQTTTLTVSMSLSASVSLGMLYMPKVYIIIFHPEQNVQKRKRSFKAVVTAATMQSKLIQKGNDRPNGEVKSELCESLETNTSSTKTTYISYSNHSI
In turn, `CCC(C)NC(=O)C1CCN(S(=O)(=O)c2ccc(OC)cc2)CC1` (stereo not given) registered a z-score of 0.321.

`COc1ccc(NC(=O)C2CCCCN2N)cc1OCC(C)C` (stereo not given) displayed a z-score of -0.289.

The molecule `CCOC(=O)c1c(C)[nH]c(C(=O)COC(=O)CNC(=O)c2ccccc2Cl)c1C` had a z-score of -0.489.

With `Fc1cccc(Cl)c1Cn1nnc(-c2ccc3c(c2)OCO3)n1`, the z-score was -0.387.

In turn, `Cc1ccc(Cn2ncc3c(N4CCCC4)ncnc32)cc1` returned a z-score of -0.0624.

For the molecule `Cc1ccc2[nH]c(O)c(N=NC(=O)C(C)n3cnc4ccccc4c3=O)c2c1` (stereo not given), the z-score was -0.491.

`COc1ccc(/C=N/c2oc(-c3ccccc3)cc2C#N)cc1OC` displayed a z-score of 0.0441.

Molecule `COc1cc(C(=O)N(Cc2cccnc2)Cc2cc3cc4c(cc3[nH]c2=O)OCCO4)cc(OC)c1OC` showed a z-score of -0.13.

`CCOC(=O)N1CCN(C(=O)c2ccc3c(=O)n(Cc4ccc(OC)cc4)c(=S)[nH]c3c2)CC1` showed a z-score of -0.232.

As to `C/C(N)=C(/C#N)C(=O)COC(=O)C1CCC(C(C)(C)C)CC1` (stereo not given), the z-score was determined as 0.313.

For the molecule `Cc1c(C(=O)OCC(=O)NCc2ccc3c(c2)OCO3)cccc1[N+](=O)[O-]`, the z-score was -0.182.

The molecule `CCOCCCNC(=O)C(NC(=O)CNC(C)=O)c1ccc(Cl)cc1` (stereo not given) yielded a z-score of 0.335.

Turning to `O=c1c2ccccc2nc(-c2ccco2)n1-c1nc2ccccc2s1`, the z-score was -0.026.

Take `O=C1C2C(c3ccccc3)C=CC(c3ccccc3)C2C(=O)N1c1ccncc1` (stereo not given): the z-score was -0.325.

In turn, `Cc1cc(C(C)(C)C)nc2[nH]n(-c3ccccc3)c(=O)c12` displayed a z-score of 0.0958.

With `CCOC(=O)c1sc2ncnc(NCc3ccco3)c2c1C`, the z-score was active: 14.7.

`CN1CCN(C(=O)c2cccc(COc3cc(Cl)ccc3Cl)c2)CC1` had a z-score of -0.0827.

`CCc1ccccc1N(CC(=O)N1CCN(c2ccccc2F)CC1)S(C)(=O)=O` came in with a z-score of 0.265.

For the molecule `CC1(C)CC(=O)c2c(-c3cccs3)n[nH]c2C1`, the z-score is -0.203.

The molecule `Cc1ccccc1CSCC(=O)c1c(N)n(CC(C)C)c(=O)n(C)c1=O` displayed a z-score of -0.259.

Turning to `Cc1ccc(S(=O)(=O)Cn2nnnc2C(c2ccc(F)cc2)N2CCCCC2)cc1` (stereo not given), the z-score is -0.359.

On to `Cc1cccc2c1CC(C)(C)N=C2C1=C(O)CCCC1=O`, for which the z-score was -0.000906.

Consider `COc1ccccc1Nc1nnc(SCc2cc(=O)n3cc(C)ccc3n2)s1`, for which the z-score is -0.145.

In turn, `CCCCCCNCCn1cnc2c(N)ncnc21` gave a z-score of -0.156.

The molecule `CCOc1ccc(N2C(=O)CC(Sc3nc(C)cc(C)n3)C2=O)cc1` (stereo not given) registered a z-score of 0.642.

Consider `CCc1nn2cc(C(=O)c3cc(Cl)ccc3O)cnc2c1-c1ccc(F)cc1`, for which the z-score was -0.0929.

Molecule `CCCC(=O)NCCc1ccc(S(N)(=O)=O)cc1` yielded a z-score of -0.248.

The molecule `O=C(CCC(=O)N1CCc2ccccc21)N1CCc2ccccc21` came in with a z-score of -0.329.

Consider `Nc1nnc(SCCOc2cccc(Br)c2)s1`, for which the z-score is -0.0231.

`CCC(NC(=O)C1(C)CC1(Br)Br)c1ccc(C)cc1` (stereo not given) displayed a z-score of -0.188.

For the molecule `O=C(Nc1nccs1)C1CCN(S(=O)(=O)c2c(Cl)cccc2Cl)CC1`, the z-score is -0.0529.

In the case of `CC1CCCCN1C(=O)Cn1c(=O)n(C2CCCCC2)c(=O)c2ccccc21` (stereo not given), the z-score was -2.44.

For `C#CCSc1nc(-c2ccccc2)cc(C(F)(F)F)c1C#N`, the z-score is -0.291.

Molecule `Nc1c(-c2ccccc2)cnc2ncnn12` gave a z-score of -0.133.

For the molecule `O=C(CSc1nc2[nH]ncc2c(=O)[nH]1)NCc1ccccc1Cl`, the z-score was -0.0848.

In the case of `COc1cccc(-c2cc(C(=O)Nc3ccc([N+](=O)[O-])cn3)c3ccccc3n2)c1`, the z-score is -0.354.

`CC1CCCN(Cc2cnc(Cl)s2)C1` (stereo not given) showed a z-score of -0.133.

`CCOC(=O)N1CCN(C(=O)c2ccc(S(=O)(=O)c3ccc(C)cc3)c(NC(C)=O)c2)CC1` showed a z-score of -0.0155.

Molecule `CCCC(=O)Nc1cccc(Oc2nc(C)cc(C)c2C#N)c1` displayed a z-score of 0.037.

Take `COCCN(CCOC)Cc1c(C)[nH]c2ccccc2c1=O`: the z-score was -0.106.

Molecule `COc1ccc2c(c1)CCc1sc(NC(=O)c3ccco3)nc1-2` came in with a z-score of 0.73.

`Clc1ccc2c(NCc3ccco3)ncnc2c1` had a z-score of -0.0149.

Turning to `CCCN1C2CCCC1CC(NC(=S)Nc1cc(C)ccc1C)C2` (stereo not given), the z-score came out at 0.489.

In the case of `O=C(Nc1ccccc1C(F)(F)F)Nc1cccc2ccccc12`, the z-score was 0.33.

With `O=C(Cn1cnc2ccccc2c1=O)N(Cc1ccco1)c1ccc(O)cc1`, the z-score is -0.397.

`COc1ccc(NC(=O)c2sc3nc(Cc4ccccc4)cc(C(F)(F)F)c3c2N)cc1OC` displayed a z-score of -0.288.

`CCC(=O)Nc1nc(=S)ss1` came in with a z-score of -0.101.

Regarding `N#Cc1ccccc1CSc1nc2ccsc2c(=O)n1Cc1ccccn1`, the z-score was -0.577.

As to `Cc1ccc(N(CC(=O)NCCSc2nc3ccccc3s2)S(=O)(=O)c2ccccc2)c(C)c1`, the z-score was 0.00154.

Take `NC(=O)/C(=C/c1ccco1)NC(=O)c1ccc(Br)o1`: the z-score worked out at 0.247.

In turn, `CC(=O)NC1=NN(C(C)=O)C(c2sccc2C)S1` (stereo not given) gave a z-score of -0.0119.

`COc1ccc(NC(=O)C2CCCN(S(=O)(=O)c3ccc(C)cc3)C2)cc1OC` (stereo not given) displayed a z-score of 0.23.

In the case of `N#C/C(=C/c1ccccc1)c1nn(CCO)c(N)c1C#N`, the z-score is -0.182.

Molecule `COc1ccc(S(=O)(=O)N2CCC(C(=O)Nc3cccc(C(C)=O)c3)CC2)cc1C` showed a z-score of -0.556.

Molecule `O=C(Nc1ccc(Cl)cc1C(=O)NCC1CCCO1)c1ccc(Cl)cc1Cl` (stereo not given) registered a z-score of -0.284.

Molecule `O=C1C2C3C=CC(C3=C3CCCCC3)C2C(=O)N1c1ccccc1` (stereo not given) displayed a z-score of -0.0345.

Take `C=CCn1cc(C(=O)NCCCOCC)c(=O)c2cc(S(=O)(=O)N(CC)CC)ccc21`: the z-score is -0.483.

Regarding `Cc1ccc(CCNC(=O)C2CCN(S(=O)(=O)c3c(C)nn(C)c3C)CC2)cc1`, the z-score is -0.368.

`CCOC(=O)c1ccccc1N/C=C/C(=O)c1ccccc1`: the z-score is -0.792.

The molecule `O=C(NC(C(=O)c1ccccc1)n1ccc(=O)[nH]c1=O)c1ccccc1` (stereo not given) displayed a z-score of -0.0844.

As for `CC1CC1c1ccc(/C=C(\C#N)C(=O)Nc2ccccc2Cl)o1` (stereo not given), the z-score was 0.799.

In turn, `O=C(N/N=C/c1ccco1)C1CC1c1ccccc1` (stereo not given) gave a z-score of -0.0248.

`CCOc1ccc(NC(=S)Nc2ccc(C)c([N+](=O)[O-])c2)cc1` displayed a z-score of 0.652.

For `CC1CC(C)CN(c2ncc3c(n2)CC(c2ccc(Cl)cc2)CC3=O)C1` (stereo not given), the z-score is -0.984.

With `CC(c1ccccc1)N1C(=O)NC(NC(=O)C(C)(C)C)(C(F)(F)F)C1=O` (stereo not given), the z-score is -0.189.

In turn, `CC(C)N1CCC(=NNC(=O)c2ccccc2[N+](=O)[O-])CC1` gave a z-score of 0.134.

Regarding `Cn1nnnc1SCC(=O)N1CCCc2ccccc21`, the z-score was -0.211.

Molecule `Cc1nc(NC(=O)CSc2nnc(Cn3nnc4ccccc43)n2C)sc1C` had a z-score of 0.14.

`CCN=C1SCC(=O)N1c1ccc(OC)cc1` displayed a z-score of -0.307.

`CN(C)c1ccc(/C=C(/C#N)C(=O)NCc2ccccc2)o1` showed a z-score of -0.277.

Regarding `COC(=O)c1ccc2c(=O)sc(N3CCC(C(N)=O)CC3)nc2c1`, the z-score was -0.774.

As to `CN1CCN(CC(=O)O)CC1`, the z-score was 0.203.

`C[C@]12CCC3C(CC=C4C[C@@H](O)CC[C@@]43C)C1CCC2[C@]1(C)CCC(=O)O1` (stereo not given in full): the z-score came to 0.00243.

Molecule `COc1ccc(OC)c(-c2cc(C(=O)Nc3c(C)nn(Cc4ccc(Cl)cc4)c3C)no2)c1` had a z-score of -1.03.

Regarding `O=C1c2cnc3nc(SCc4cccc(Cl)c4)nn3c2CC2c3ccccc3CCN12` (stereo not given), the z-score was 0.456.

On to `O=C(O)c1ccc2c(c1)C(=O)N(c1ccc(Cl)cn1)C2=O`, for which the z-score is -1.75.

On to `CCn1c(C)c(C2=CCN(S(=O)(=O)c3ccc(C)cc3)CC2)c2ccccc21`, for which the z-score stood at 0.0891.

Regarding `CCn1cc(C(=O)O)c(=O)c2cc(F)c(N/N=C/c3ccccc3[N+](=O)[O-])cc21`, the z-score was -0.392.

Take `CC1CCCN(c2ccc(C(=O)OCC(=O)N3c4ccccc4Sc4ccccc43)cc2[N+](=O)[O-])C1` (stereo not given): the z-score was -0.269.

For `COc1ccc(C(=O)COc2ccccc2N2C(=O)C3C4C=CC(C4)C3C2=O)cc1` (stereo not given), the z-score is -0.531.

In the case of `CCC(=O)NC(NC(=O)CC)C(Cl)Cl`, the z-score amounted to 0.0473.

`CCSC1(SCC)N=C(N)C2(C#N)C(c3ccccc3)NC3=C(CCC3)C12C#N` (stereo not given): the z-score is 0.00871.

As for `CC(Sc1nc2c(c(=O)n(C)c(=O)n2C)n1Cc1cc2c(cc1Cl)OCO2)C(=O)O` (stereo not given), the z-score was -0.0886.

Take `O=C1CCCC2=C1C(c1cccc(Br)c1)n1nc(-c3ccco3)nc1N2` (stereo not given): the z-score stood at 0.00784.

With `N/C(=N\OC(=O)c1ccc(Cl)cc1Cl)c1ccccc1`, the z-score is -0.281.

Regarding `O=C(Cc1cccc(C(F)(F)F)c1)NCc1ccc(Cl)cc1`, the z-score is -0.22.

Molecule `CCNC(=O)NC(=O)C(C)OC(=O)c1ccc(-n2nc(SC)sc2=S)cc1` (stereo not given) yielded a z-score of -0.00926.

For `Cc1nc(NC(=O)c2ccccc2)sc1-c1csc(NCc2ccco2)n1`, the z-score was found to be 0.00275.

The molecule `COc1ccccc1-n1cnc2cc(NCc3ccccn3)ccc21` had a z-score of -0.00719.

Regarding `CSc1nncc(/C(C)=N/O)n1`, the z-score turned out to be 0.701.

`O=C(Nc1nc2c(s1)COc1ccccc1-2)c1cccs1`: the z-score is -0.346.

`Nc1nc(SCC(=O)N2CCCC2)[nH]c(=O)c1NC(=O)c1ccco1` showed a z-score of 0.975.

For `Cn1c2ccc(Cl)cc2c2nc3ccccc3nc21`, the z-score was determined as 0.699.

In turn, `COc1ccc(Br)cc1C1NC(=O)NC(C)=C1C(=O)N(C)C` (stereo not given) had a z-score of 0.177.

With `Cc1ccc(SCc2nc(N)nc(Nc3ccccc3C)n2)c(C)c1`, the z-score is 0.274.

Molecule `O=C(NCCNC(=O)c1cc(OCC(F)(F)F)ccc1OCC(F)(F)F)Nc1ccc(Cl)cc1` registered a z-score of 0.298.

`Cc1ccc(OCC(=O)NNC(=O)C2CCN(c3nc(C)cc(C)n3)CC2)cc1`: the z-score was -0.168.

Consider `CCN1c2ccccc2-c2nc3ccccc3n2C1c1ccco1` (stereo not given), for which the z-score was -1.86.

Consider `CCOC(=O)CNC(c1ccccc1)c1cc(Br)ccc1NC(=O)OCC` (stereo not given), for which the z-score is -1.5.

As to `CC(C)CCn1c(SCC(=O)OCn2nnc3ccccc3c2=O)nc2ccccc2c1=O`, the z-score turned out to be 0.629.

As to `COc1ccc(S(N)(=O)=O)cc1C(=O)NCCCN1CCN(c2ccc(C)cc2)CC1`, the z-score came to 0.969.

The molecule `Cc1ccc(C)c(NC(=S)NC(NC(=O)Cc2ccccc2)C(Cl)(Cl)Cl)c1` (stereo not given) returned a z-score of -0.24.

Take `COc1cc2c(cc1NC(=O)COc1ccccc1OC)oc1ccccc12`: the z-score was active: 5.54.

For the molecule `COc1ccccc1NC(=S)NNC(=O)c1ccccc1`, the z-score is -0.162.

Take `Cc1cccc(N(C)C(=O)COc2cc(=O)n(C)c3ccccc23)c1`: the z-score was determined as 0.0876.

`COc1ccccc1Cn1c(=O)c2ccccc2n2c(Sc3ncnc4sccc34)nnc12`: the z-score is -0.65.

`Cc1ccc2ccccc2c1Cn1c(-n2ccnc2)nc2c1c(=O)n(C)c(=O)n2C` yielded a z-score of 0.134.

Turning to `O=C1CC(c2ccccc2Cl)CC(O)=C1C=Nc1ccccc1` (stereo not given), the z-score was found to be 0.0348.

Molecule `Cc1nc(NC(=O)C(Cl)Cl)sc1C(=O)N(C)C` showed a z-score of -0.0454.

Molecule `CCCOc1cc(C)c(S(=O)(=O)n2ccc(C)n2)cc1C` returned a z-score of -0.146.

The values are drawn from PubChem BioAssay AID488969 (Vanderbilt High Throughput Screening Facility, 2010).
